# Test results from PubChem BioAssay AID216 (DTP/NCI, 2004).
# Inconclusive results and toxic doses are left out. For part of its entries the source gives two or more results. This list holds those alone. There may be further records. Values given together repeat one measurement (runs, samples, wells, individuals or studies).
# System: BDF1 mice, P288 leukemia ip, survival T/C
# Test: NCI In Vivo Anticancer Drug Screen. Data for tumor model P288 Lymphocytic Leukemia (intraperitoneal) in B6D2F1 (BDF1) mice
# Settings: endpoint: survival time, mean or median, higher = longer survival
# Procedure: The antitumor activity of compounds was measured in mice bearing transplantable tumors. Survival or tumor size were measured and the results are expressed as the measurement made in the treated group (T) divided by the measurement made in the vehicle treated control group (C). The tumor model used in this assay is P288 Lymphocytic Leukemia (intraperitoneal) in B6D2F1 (BDF1) mice
compound,measurement,setting,value
CN(C)c1ccc(Nc2c3ccccc3nc3ccccc23)cc1,T/C,"dose: 80.0 mg/kg/injection, schedule: Q01DX010 (ip), vehicle: saline",100 % of control and 166 % of control
O=C(Nc1ccc(C2=NCCN2)cc1)c1ccc(C(=O)Nc2ccc(C3=NCCN3)cc2)c(Cl)c1,T/C,"dose: 15.0 mg/kg/injection, schedule: Q01DX Z (ip), vehicle: water",107 % of control and 181 % of control
O=C(Nc1ccc(C2=NCCN2)cc1)c1ccc(C(=O)Nc2ccc(C3=NCCN3)cc2)cc1,T/C,"dose: 64.0 mg/kg/injection, schedule: Q01DX010 (ip), vehicle: other",120 % of control and 158 % of control
O=P1(N(CCCl)CCCl)NCCCO1 (stereo unspecified),T/C,"dose: 22.5 mg/kg/injection, schedule: Q01DX010 (ip), vehicle: saline",108 % of control and 169 % of control
N#[N+]c1cnc([O-])[nH]c1=O,T/C,"dose: 5.0 mg/kg/injection, schedule: Q01DX010 (ip), vehicle: saline",104 % of control and 150 % of control
O=c1[nH]cc(F)c(=O)[nH]1,T/C,"dose: 40.0 mg/kg/injection, schedule: Q01DX010 (ip), vehicle: saline","88 % of control, 95 % of control, 156 % of control"
